The source of these data is patent US20180094045A1 (ASCLEPIUS SUZHOU TECHNOLOGY COMPANY GROUP, published 2018).

Experiment [1] addresses T1, Robo1 (ORIGEN Company, number: TP327713) (UniProt Q9Y6N7 26-1651, limits assumed).
T1 construct: also called receptor Robo1; target protein Robo1
The experiment can be described thus: SPR (BIAcore), Robo1 bound on CM5 chip; column head 'Kd (nM)'. The procedure:
(§1) The affinity constant between the prepared protein and Robo1 was determined by SPR (Surface Plasmon resonance BIAcore200). The Robo1 (ORIGEN Company, number: TP327713) was bound on CM5 chip and used to analysis the interaction between fusion protein Slit2D2-HSA and receptor Robo1. Kinetic measurements were carried out according to the method referred by Canziani et al. (2004, Anal. Biochem. 325:301-307), simultaneously, the same method was applied to measure the affinity between Slit2N protein (Slit2N is a protein at N-terminal of slit2 with a molecular weight of about 120 KDa) and Robo1.
For orientation: Surface plasmon resonance follows binding to a sensor surface in real time, without labels.

The target in experiment [2] is T1, Robo1 (ORIGEN Company, number: TP327713). In words: SPR (BIAcore), Robo1 bound on CM5 chip. The method, then: as §1
T1 sequence (Q9Y6N7 26-1651 limits assumed): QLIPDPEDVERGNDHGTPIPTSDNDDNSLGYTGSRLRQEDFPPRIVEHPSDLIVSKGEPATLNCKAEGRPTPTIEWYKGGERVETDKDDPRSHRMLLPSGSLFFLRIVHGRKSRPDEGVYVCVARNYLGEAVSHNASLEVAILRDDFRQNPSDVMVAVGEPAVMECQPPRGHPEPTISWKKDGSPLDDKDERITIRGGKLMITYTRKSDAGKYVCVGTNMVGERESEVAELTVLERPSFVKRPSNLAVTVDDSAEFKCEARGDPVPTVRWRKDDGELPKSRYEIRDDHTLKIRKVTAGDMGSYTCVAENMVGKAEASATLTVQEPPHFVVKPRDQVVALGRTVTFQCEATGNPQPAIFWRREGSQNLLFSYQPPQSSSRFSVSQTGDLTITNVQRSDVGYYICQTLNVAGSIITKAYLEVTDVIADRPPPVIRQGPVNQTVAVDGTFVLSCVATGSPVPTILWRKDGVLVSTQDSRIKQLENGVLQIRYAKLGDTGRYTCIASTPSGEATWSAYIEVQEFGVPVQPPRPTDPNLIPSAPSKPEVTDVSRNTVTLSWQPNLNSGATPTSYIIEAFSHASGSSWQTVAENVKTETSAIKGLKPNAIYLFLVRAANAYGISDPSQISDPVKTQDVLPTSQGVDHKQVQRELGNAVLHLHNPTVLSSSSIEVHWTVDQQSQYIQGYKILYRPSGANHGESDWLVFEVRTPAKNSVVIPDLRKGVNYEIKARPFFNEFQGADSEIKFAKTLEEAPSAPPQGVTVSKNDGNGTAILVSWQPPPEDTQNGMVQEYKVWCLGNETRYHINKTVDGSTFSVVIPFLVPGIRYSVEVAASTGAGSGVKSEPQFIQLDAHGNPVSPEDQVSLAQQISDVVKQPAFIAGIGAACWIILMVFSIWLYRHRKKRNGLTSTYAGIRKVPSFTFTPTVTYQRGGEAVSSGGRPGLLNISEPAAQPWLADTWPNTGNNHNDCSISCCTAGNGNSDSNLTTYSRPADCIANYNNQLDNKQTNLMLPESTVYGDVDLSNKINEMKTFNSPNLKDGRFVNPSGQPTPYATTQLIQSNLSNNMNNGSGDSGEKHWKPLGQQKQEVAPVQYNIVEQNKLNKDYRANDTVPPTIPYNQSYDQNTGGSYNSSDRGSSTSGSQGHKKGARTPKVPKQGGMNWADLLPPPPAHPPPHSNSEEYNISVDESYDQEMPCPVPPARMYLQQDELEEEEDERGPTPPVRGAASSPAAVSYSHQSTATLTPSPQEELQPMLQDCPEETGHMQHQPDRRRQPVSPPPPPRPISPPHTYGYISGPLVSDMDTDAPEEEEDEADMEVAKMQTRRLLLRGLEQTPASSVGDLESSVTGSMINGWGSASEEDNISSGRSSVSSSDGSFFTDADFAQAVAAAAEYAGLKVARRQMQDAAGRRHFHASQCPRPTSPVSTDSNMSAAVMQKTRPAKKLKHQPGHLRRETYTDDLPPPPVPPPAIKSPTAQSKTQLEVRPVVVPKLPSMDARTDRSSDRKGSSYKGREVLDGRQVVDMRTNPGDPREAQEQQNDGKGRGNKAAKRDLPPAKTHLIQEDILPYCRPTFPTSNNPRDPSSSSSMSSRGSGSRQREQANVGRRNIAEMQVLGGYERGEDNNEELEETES

By Kd is commonly meant the concentration at which binding is half-saturated. A higher Kd goes with lower affinity. One may read the kon as the second-order rate constant of association. Higher therefore signals fast association.

B1: fusion protein Slit2D2-HSA (ligand)
chain: LHCPAACTCSNNIVDCRGKGLTEIPTNLPETITEIRLEQNTIKVIPPGAFSPYKKLRRIDLSNNQISELAPDAFQGLRSLNSLVLYGNKITELPKSLFEGLFSLQLLLLNANKINCLRVDAFQDLHNLNLLSLYDNKLQTIAKGTFSPLRAIQTMHLAQNPFICDCHLKWLADYLHTNPIETSGARCTSPRRLANKRIGQIKSKKFRCS[about 600 residues not spelt out]
The molecule B1 yielded a Kd in experiment [1] of 2.8 nM. The molecule further registered a kon in experiment [2] of 177000 M⁻¹ s⁻¹.
